Laboratory results as given in PubChem BioAssay AID1963576 (National Center for Advancing Translational Sciences (NCATS), 2024).
Out of some 46,000 compounds screened, about 60 (0.1%) were called active. Roughly 3% stayed inconclusive and do not appear here. The call rests on the fitted dose curve; in most records, active means well fitted inhibition curve with a large enough effect; inconclusive means small, poorly fitted or top-dose-only effect; inactive means no such curve, though single readings can be large or run the other way. The list shows a part of the results.

Assay: Primary qHTS assay for Inhibitors of ovarian cancer metastasis using an organotypic tumor microenvironment (TME) model. Further: nearly all actives have a fitted effect of over 65% in size.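 On activity change, negative = inhibition: plate controls were DMSO wells for no effect and tomatine positive control wells for full effect.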
Conditions: SKOV3ip1-GFP adhesion/invasion on 3D omental model, fluorescence; series mostly up to 45.8 µM; activity change, negative = inhibition: at the top concentration
Method in brief: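 qHTS, 4-pt dose (0.36-46 umol/L); SKOV3ip1-GFP, 1,200 cells/well, no FBS; primary omental fibroblast/mesothelial co-culture 48 h pre-grown; 2 h RT + 16 h 37 C; PBS wash, 4% PFA; GFP count 488/509 nm.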

Activity change, negative = inhibition, inactive:
Cc1cc(C)c2c(c1)c(C)cc1nnc(SCC(=O)c3ccc(F)cc3)n12 1.62%
COc1ccc(Cl)cc1NC(=O)Cn1c(=O)c(-c2ccccc2NC(C)=O)nc2ccccc21 -5.77%
Cc1ccc(NC(=O)CC2Sc3ccc(C(F)(F)F)cc3NC2=O)cc1 (configuration not stated) 1.77%
COc1cccc(CNS(=O)(=O)c2ccc3c(c2)C(C(C)C)C(=O)N3)c1 (configuration not stated) 9.53%
CCOc1ccc(C(c2c(O)cc(C)n(Cc3ccco3)c2=O)N2CCCCC2)cc1 (configuration not stated) -2.48%
Cc1c(C(=O)O)oc2c1-c1nn(Cc3ccc(Cl)cc3)cc1CC2 3.31%
CN(C)CCNC(=O)C(=O)NCC(c1ccc2c(c1)OCO2)N1CCOCC1 (configuration not stated) -1.26%
Cc1cc(-c2ccccc2)n2nc(-c3ccccc3)cc2n1 -3.45%
Cc1cc(C)c(NC(=O)CSc2nncn3c2cc2oc(C)cc23)c(C)c1 12.2%
Cc1ccn2c(Nc3ccc(C(C)C)cc3)c(-c3cccnc3)nc2c1 -0.0792%
Cc1ccc(OCCSc2nc(C)c(Cc3ccccc3)c(=O)[nH]2)cc1 -0.465%
C[C@]12CCC(=O)C=C1[C@@H]1CC1[C@H]1[C@H]3[C@@H]4C[C@H]4[C@@]4(CCC(=O)O4)[C@@]3(C)CC[C@H]12 (some centres not stated) -7.44%
CCc1cccc(NC(=O)c2ccc(NC(=O)N3CCSc4ncccc43)cc2)c1 6.55%
CC(=O)c1cccc(NS(=O)(=O)c2cc3c(cc2C)N(C(C)=O)CCO3)c1 -15.2%
Cc1c(-c2nc(-c3ccc4c(c3)OCO4)no2)nnn1-c1ccc(C(C)C)cc1 0.134%
Cc1ccc(C(=O)NCC(c2ccc3c(c2)OCO3)N2CCOCC2)cc1 (configuration not stated) -2.2%
Cc1cccc(NC(=O)C(Cc2ccccc2)NS(=O)(=O)c2ccc3c(c2)c(=O)n(C)c(=O)n3C)c1 (configuration not stated) 5.53%

outcome, inactive:
COc1ccc(N2CCN(C(c3ccccc3F)c3sc4nc(-c5ccco5)nn4c3O)CC2)cc1 (configuration not stated)
CCOC(=O)c1c(NC(=O)COc2cccc(C)c2C)sc(C(C)=O)c1C
COc1ccccc1C(=O)Nc1c(C(=O)Nc2ccccc2F)oc2ccccc12
Cc1ccc2cccc(NC(=O)C(C)Oc3ccc(Cl)cc3Cl)c2n1 (configuration not stated)
COc1ccc(CNC(=O)Nc2cn(CC(C)C)c(=O)c3ccccc23)cc1
Cc1cc(Cl)ccc1OCC(=O)N1CCC(c2nc3ccccc3s2)CC1
Cc1ccc(-c2nc(C(=O)NCc3ccccc3Cl)c3n2CCCCC3)cc1
Cc1ccc(NC(=O)N2CCC(CN3CCCC3)CC2)c(C)c1
CCc1nn(CCCC(=O)N2CCN(c3cccc(OC)c3)CC2)c(=O)c2cc3occc3n12
COC(=O)c1cc(C)nc2c1c(=O)nc(SCc1ccccc1C)n2C1CC1
